Experimental data as given in the supplement of paper PMC12217912.
This is one part of the list. Sequences were assembled here from the parent chain. Inactive controls read about 0.05.

B1: TEV protease; numbered along this chain (parent)
chain: MGESLFKGPRDYNPISSSICHLTNESDGHTTSLYGIGFGPFIITNKHLFRRNNGTLVVQSLHGVFKVKDTTTLQQHLVDGRDMIIIRMPKDFPPFPQKLKFREPQREERICLVTTNFQTKSMSSMVSDTSCTFPSGDGIFWKHWIQTKDGQCGSPLVSTRDGFIVGIHSASNFTNTNNYFTSVPKNFMELLTNQEAQQWVSGWRLNADSVLWGGHKVFMVKPEEPFQPVKEATQL

Variants of: B1
Assay: raw area under fraction-flipped curve 0-4 h after induction (AUC4h, not background-subtracted), DNA-recorder readout of cleavage of the substrate (dimensionless); higher = more cleavage of the substrate by the protease variant
Details: temperature: 34 °C; time window: 0-4 h after rhamnose induction
Method: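 In vivo DNA recorder in E. coli TOP10(DE3) ΔrhaA at 34 °C. Each TEVp single-site mutant (parent TEVp 0) is paired with a single-site variant of the 7-mer TEVs (canonical ENLYFQ|S). The substrate sits between flexible linkers in a Bxb1-sfGFP-TEVs-SsrA fusion, so cleavage stabilises Bxb1 and speeds flipping of a recombination array, read by NGS. The value is the raw area under the fraction-flipped curve over 0-4 h after rhamnose induction (AUC4h), with ≥20 reads per time point. It is not background-subtracted; inactive controls average about 0.047.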
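Also: Bxb1 expression induced with 0.2% (w/v) L-rhamnose at OD600 near 0.5, cultures sampled hourly, flipped fraction per protease–substrate barcode pair counted by paired-end Illumina sequencing.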

| Variant | area with substrate ENAYFQS | area with substrate ENCYFQS | area with substrate ENDYFQS | area with substrate ENEYFQS | area with substrate ENFYFQS | area with substrate ENGYFQS | area with substrate ENHYFQS | area with substrate ENIYFQS | area with substrate ENMYFQS | area with substrate ENNYFQS | area with substrate ENPYFQS | area with substrate ENQYFQS | area with substrate ENRYFQS | area with substrate ENSYFQS | area with substrate ENTYFQS | area with substrate ENVYFQS | area with substrate ENWYFQS | area with substrate ENYYFQS | area with substrate ENKYFQS |
| --- | --- | --- | --- | --- | --- | --- | --- | --- | --- | --- | --- | --- | --- | --- | --- | --- | --- | --- | --- |
| MGESLFKGPRDYNPISSSICHLTNESDGHTTSLYGIGFGPFIITNKHLFRRNNGTLVVQSLHGVFKVKDTTTLQQHLVDGRDMIIIRMPKDFPPFPQKLKFREPQREERICLVTTNFQTKSMSSMVSDTSCTFPSGDGIFWKHWIQTADGQCGSPLVSTRDGFIVGIHSASNFTNTNNYFTSVPKNFMELLTNQEAQQWVSGWRLNADSVLWGGHKVFMVKPEEPFQPVKEATQL [K148A] | 0.0533 | 0.0647 | 0.0536 | 0.0642 | 0.0545 | 0.0621 | 0.0639 | 0.112 | 0.0664 | 0.0605 | 0.0608 | 0.0607 | 0.0581 | 0.0512 | 0.0772 | 0.0773 | 0.0871 | 0.0587 | – |
| MGESLFKGPRDYNPISSSICHLTNESDGHTTSLYGIGFGPFIITNKHLFRRNNGTLVVQSLHGVFKVKDTTTLQQHLVDGRDMIIIRMPKDFPPFPQKLKFREPQREERICLVTTNFQTKSMSSMVSDTSCTFPSGDGIFWKHWIQTKDEQCGSPLVSTRDGFIVGIHSASNFTNTNNYFTSVPKNFMELLTNQEAQQWVSGWRLNADSVLWGGHKVFMVKPEEPFQPVKEATQL [G150E] | 0.0566 | 0.0638 | 0.0662 | 0.0574 | 0.0588 | 0.053 | 0.0611 | 0.0615 | 0.0618 | 0.0558 | – | 0.0584 | 0.0637 | 0.0609 | 0.0589 | 0.047 | – | – | 0.0602 |
| MGESLFKGPRDYNPISSSICHLTNESDGHTTSLYGIGFGPFIITNKHLFRRNNGTLVVQSLHGVFKVKDTTTLQQHLVDGRDMIIIRMPKDFPPFPQKLKFREPQREERICLVTTNFQTKSMSSMVSDTSCTFPSGDGIFWKHWIQTKDWQCGSPLVSTRDGFIVGIHSASNFTNTNNYFTSVPKNFMELLTNQEAQQWVSGWRLNADSVLWGGHKVFMVKPEEPFQPVKEATQL [G150W] | 0.0534 | 0.0661 | 0.0649 | 0.0734 | 0.0558 | 0.0605 | 0.0547 | 0.0559 | 0.0946 | 0.0567 | 0.0572 | 0.0645 | 0.0587 | 0.0546 | 0.0526 | 0.0538 | – | 0.0612 | 0.0767 |
| MGESLFKGPRDYNPISSSICHLTNESDGHTTSLYGIGFGPFIITNKHLFRRNNGTLVVQSLHGVFKVKDTTTLQQHLVDGRDMIIIRMPKDFPPFPQKLKFREPQREERICLVTTNFQTKSMSSMVSDTSCTFPSGDGIFWKHNIQTKDGQCGSPLVSTRDGFIVGIHSASNFTNTNNYFTSVPKNFMELLTNQEAQQWVSGWRLNADSVLWGGHKVFMVKPEEPFQPVKEATQL [W144N] | 0.06 | 0.0882 | – | 0.0592 | – | 0.0637 | 0.0678 | 0.0763 | 0.078 | – | – | 0.0585 | 0.0521 | 0.0653 | 0.0733 | – | – | – | – |
| MGESLFKGPRDYNPISSSICHLTNESDGHTTSLYGIGFGPFIITNKHLFRRNNGTLVVQSLHGVFKVKDTTTLQQHLVDGRDMIIIRMPKDFPPFPQKLKFREPQREERICLVTTNFQTKSMSSMVSDTSCTFPSGDGIFWKHHIQTKDGQCGSPLVSTRDGFIVGIHSASNFTNTNNYFTSVPKNFMELLTNQEAQQWVSGWRLNADSVLWGGHKVFMVKPEEPFQPVKEATQL [W144H] | 0.055 | 0.0705 | 0.064 | – | 0.0854 | 0.0586 | – | 0.104 | – | 0.0648 | 0.0578 | 0.0576 | – | 0.0781 | 0.0572 | 0.0853 | – | 0.0681 | – |
| MGESLFKGPRDYNPISSSICHLTNESDGHTTSLYGIGFGPFIITNKHLFRRNNGTLVVQSLHGVFKVKDTTTLQQHLVDGRDMIIIRMPKDFPPFPQKLKFREPQREERICLVTTNFQTKSMSSMVSDTSCTFPSGDGIFWKHKIQTKDGQCGSPLVSTRDGFIVGIHSASNFTNTNNYFTSVPKNFMELLTNQEAQQWVSGWRLNADSVLWGGHKVFMVKPEEPFQPVKEATQL [W144K] | 0.0685 | – | 0.052 | 0.0537 | 0.0651 | 0.0718 | – | 0.0758 | – | – | 0.0649 | – | 0.0895 | 0.0642 | 0.0638 | – | 0.0681 | 0.0688 | – |
| MGESLFKGPRDYNPISSSICHLTNESDGHTTSLYGIGFGPFIITNKHLFRRNNGTLVVQSLHGVFKVKDTTTLQQHLVDGRDMIIIRMPKDFPPFPQKLKFREPQREERICLVTTNFQTKSMSSMVSDTSCTFPSGDGIFWKHRIQTKDGQCGSPLVSTRDGFIVGIHSASNFTNTNNYFTSVPKNFMELLTNQEAQQWVSGWRLNADSVLWGGHKVFMVKPEEPFQPVKEATQL [W144R] | 0.0526 | 0.0571 | 0.0665 | 0.067 | 0.0696 | 0.0677 | 0.0751 | – | – | – | – | 0.0631 | 0.06 | 0.064 | – | 0.075 | – | – | 0.038 |
| MGESLFKGPRDYNPISSSICHLTNESDGHTTSLYGIGFGPFIITNKHLFRRNNGTLVVQSLHGVFKVKDTTTLQQHLVDGRDMIIIRMPKDFPPFPQKLKFREPQREERICLVTTNFQTKSMSSMVSDTSCTFPSGDGIFWKHMIQTKDGQCGSPLVSTRDGFIVGIHSASNFTNTNNYFTSVPKNFMELLTNQEAQQWVSGWRLNADSVLWGGHKVFMVKPEEPFQPVKEATQL [W144M] | 0.0634 | – | 0.0595 | 0.0717 | 0.0695 | – | – | 0.0945 | – | 0.0831 | – | 0.0579 | 0.0503 | 0.0531 | – | 0.0559 | 0.0656 | – | 0.074 |
| MGESLFKGPRDYNPISSSICHLTNESDGHTTSLYGIGFGPFIITNKHLFRRNNGTLVVQSLHGVFKVKDTTTLQQHLVDGRDMIIIRMPKDFPPFPQKLKFREPQREERICLVTTNFQTKSMSSMVSDTSCTFPSGDGIFWKHPIQTKDGQCGSPLVSTRDGFIVGIHSASNFTNTNNYFTSVPKNFMELLTNQEAQQWVSGWRLNADSVLWGGHKVFMVKPEEPFQPVKEATQL [W144P] | 0.0204 | 0.0549 | 0.0643 | 0.0567 | 0.0539 | – | – | – | – | 0.0692 | 0.0677 | 0.0587 | 0.0613 | 0.0641 | 0.0583 | – | 0.0464 | 0.0642 | 0.063 |
